# Source: publication PMC4336329 (PLoS ONE, 2015)
# The campaign covered roughly 310,000 compounds. About 14,000 (4.5%) showed an effect of 50% or more. Effects have a minus sign here. The list shows a part of the results. Where a SMILES comes first, the peptide text is derived from it. [ ]: non-standard residue; d: D form. The star is where a group is joined. ξ: configuration not given here. Boc = CC(C)(C)OC(=O)*; ξP = O=C(O)C1CCCN1
# Target: human ether-à-go-go-related gene (hERG) potassium channel (human, UniProt Q12809)
# Experiment: primary screen, population patch clamp on CHO cells stably expressing hERG
# 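Further: peak tail current of the secondary pulse compared with the same well before compound.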
# Chain of human ether-à-go-go-related gene (hERG) potassium channel (Q12809 whole entry, looked up): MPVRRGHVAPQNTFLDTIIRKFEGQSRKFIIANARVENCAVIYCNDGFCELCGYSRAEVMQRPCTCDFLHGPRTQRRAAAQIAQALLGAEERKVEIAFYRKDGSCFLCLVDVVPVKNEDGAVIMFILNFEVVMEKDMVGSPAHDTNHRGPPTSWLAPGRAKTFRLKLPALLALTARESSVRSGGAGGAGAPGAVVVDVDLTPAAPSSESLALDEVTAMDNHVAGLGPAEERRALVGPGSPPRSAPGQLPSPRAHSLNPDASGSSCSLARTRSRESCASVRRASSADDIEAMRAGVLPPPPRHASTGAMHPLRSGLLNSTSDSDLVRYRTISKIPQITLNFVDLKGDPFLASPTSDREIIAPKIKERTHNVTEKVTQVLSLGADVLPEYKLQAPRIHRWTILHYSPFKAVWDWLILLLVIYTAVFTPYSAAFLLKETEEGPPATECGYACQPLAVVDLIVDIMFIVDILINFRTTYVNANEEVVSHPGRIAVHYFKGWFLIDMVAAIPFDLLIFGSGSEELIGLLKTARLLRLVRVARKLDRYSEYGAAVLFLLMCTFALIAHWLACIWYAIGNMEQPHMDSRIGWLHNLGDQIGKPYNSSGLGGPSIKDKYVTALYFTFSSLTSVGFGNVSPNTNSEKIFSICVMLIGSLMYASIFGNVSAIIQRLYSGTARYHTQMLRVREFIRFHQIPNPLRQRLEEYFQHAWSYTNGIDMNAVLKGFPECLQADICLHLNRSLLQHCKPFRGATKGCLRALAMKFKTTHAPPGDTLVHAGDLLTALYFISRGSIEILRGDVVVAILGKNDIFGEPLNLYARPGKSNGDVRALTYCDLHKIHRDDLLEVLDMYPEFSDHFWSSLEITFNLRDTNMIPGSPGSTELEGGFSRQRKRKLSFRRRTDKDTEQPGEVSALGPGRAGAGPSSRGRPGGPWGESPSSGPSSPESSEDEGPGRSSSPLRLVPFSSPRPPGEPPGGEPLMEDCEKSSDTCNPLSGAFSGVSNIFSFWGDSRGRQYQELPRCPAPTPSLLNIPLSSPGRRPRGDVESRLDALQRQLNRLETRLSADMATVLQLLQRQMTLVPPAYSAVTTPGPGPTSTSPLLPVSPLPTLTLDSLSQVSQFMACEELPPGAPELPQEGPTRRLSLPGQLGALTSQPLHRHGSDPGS
row,Structure (SMILES),"hERG current change (%, negative = inhibition) at 10uM [%]"
1,Cc1ccc(N2CCN(S(=O)(=O)c3ccc4c(c3)n(C)c(=O)c(=O)n4C)CC2C)cc1 (stereo not drawn),2.97
2,CCCc1nc2c(C)cc(-c3nc4ccccc4n3C)cc2n1Cc1ccc(-c2ccccc2C(=O)O)cc1,-31.7
3,Cc1[nH]n(-c2ccccc2)c(=O)c1N=Nc1ccc(C#N)cc1,15.6
4,Cn1c(SCC(=O)NNC(=O)c2ccccc2)nnc1C1CC1,10.8
5,COC(=O)c1sccc1-c1ccc(/C=N/OC(=O)c2ccccc2)o1,7.69
6,Cc1ccccc1NC(=O)CSc1nnc(-c2ccoc2C)n1CCc1ccccc1,-59.6
7,Cc1cc(C)n(-c2nc(SCC(=O)O)c3c4c(sc3n2)COC(C)(C)C4)n1,2.48
8,O=C(Nc1cc(S(=O)(=O)N2CCCCC2)ccc1Oc1ccccc1)C1=COCCO1,-10.6
9,Cc1nonc1NC(=O)Nc1cccnc1,-0.462
10,C=CCc1cccc(/C=N/NC(=O)c2ccccc2OC)c1O,14.1
11,Cc1nn(CC#N)c(=O)n1-c1ccc(F)cc1,10.4
12,CCCSc1nc2sc3c(c2c(=O)[nH]1)CCN(Cc1ccccc1)C3,-13.9
13,O=S(=O)(Nc1ccncc1Cl)c1ccccc1,-13.8
14,O=C(Oc1c(Cl)cc(Cl)c2cccnc12)c1ccco1,-6.09
15,O=[N+]([O-])c1ccc(NC(=S)N2CCCC2)cc1,1.8
16,CC(=O)c1cn(CCOc2ccc(F)cc2)c2ccccc12,-3.33
17,CCOC(=O)C1C(c2ccc3c(c2)OCO3)NC(=O)NC1(O)C(F)(F)F (stereo not drawn),8.93
18,O=c1cc(CN2CC=C(c3ccccc3)CC2)c2c(ccc3ccccc32)o1,-0.374
19,CCOC(=O)c1c(C)n(C)c2ccc(OC(=O)c3ccoc3)cc12,3.02
20,N#C/C(=C\c1ccc(N2CCOCC2)o1)C(=O)NCC1CCCO1 (stereo not drawn),-0.262
21,CCN(CC)CCCNCC(=O)Nc1ccc(OC)c(Cl)c1.O=C(O)C(=O)O,-15.5
22,O=C1c2ccccc2CCC12N=NCC2c1ccc(Cl)cc1 (stereo not drawn),-4.7

row,Structure (SMILES),"hERG current change (%, negative = inhibition) at 10uM [%]"
1,CC(=O)N1CCOc2ccc(S(=O)(=O)N3CCC(C(=O)NCc4ccccc4)CC3)cc21,8.85
2,Cc1cc(C)c(NC(=O)CN2C(=O)NC3(CCCCC3)C2=O)c(C)c1,0.115
3,Cc1ccccc1CN(c1ccc(C(=O)NCc2ccccn2)cc1)S(C)(=O)=O,-35.4
4,OC(COCC(F)(F)C(F)(F)C(F)(F)C(F)F)Cn1c2ccc(Cl)cc2c2cc(Cl)ccc21 (stereo not drawn),-9.49
5,CCOc1cc2[nH]c(=S)n(Cc3ccc(C(=O)N4CCN(C)CC4)cc3)c(=O)c2cc1OCC,11.4
6,Cc1ccc(SCC(=O)NCCN2C(=O)CSC2=O)cc1C,1.73
7,S=C(Nc1ccc(Cl)cc1)NC1CC2CCCC(C1)N2C1CC1 (stereo not drawn),-32.9
8,Cn1c(CNC(=O)Nc2cccc(Cl)c2)nnc1SCc1ccccc1,-1.75
9,COc1c2ccoc2c(OC[C@@H](O)C(C)(C)O)c2oc(=O)ccc12,7.95
10,Clc1nccc(N2CCN(c3ccccc3Cl)CC2)n1,-11.4
11,O=C(CN1CCC(C(=O)c2ccc3c(c2)OCCO3)CC1)NC1CCCC1,5.27
12,CC12CCC(=O)N1C(C(=O)Nc1cc(C(F)(F)F)ccc1N1CCOCC1)CS2 (stereo not drawn),-10.1
13,CC(C)CNC(=S)Nc1ccc(F)cc1,12.2
14,CC(=O)Nc1ccc(N2C(=O)c3cccc(NC(C)=O)c3C2=O)cc1,23.3
15,COc1ccccc1Nc1ccc([N+](=O)[O-])cn1,12
16,Cc1sc2ncnc(SCC(=O)N3CCCC(C(N)=O)C3)c2c1C (stereo not drawn),-0.398
17,CCN1CCN(C(c2cccnc2)c2c(NC(=O)c3ccco3)sc(C)c2C)CC1 (stereo not drawn),-58.4
18,COC(=O)CNC(=O)C1CCCN1C(=O)CNC(=O)OC(C)(C)C (stereo not drawn) (Boc-Gly-[ξP]-Gly-OMe),10.2
19,Cc1ccc(NS(=O)(=O)c2cccc(C(=O)N3CCCCCCC3)c2)cc1,-34.1
20,Cc1cccc(NC(=S)N2CCN(Cc3ccc4c(c3)OCO4)CC2)c1C,-16.1
21,O=c1oc(CCCO)cc2ccc(/C=C/c3cccc([N+](=O)[O-])c3)cc12,11
22,Cc1ccc(N(C(=O)CNC(=O)c2ccco2)C(C(=O)NCC2CCCO2)c2ccccc2)c(C)c1 (stereo not drawn),-24.6

row,Structure (SMILES),"hERG current change (%, negative = inhibition) at 10uM [%]"
1,Cc1ccc(C)c(CSc2nnc(CCN)o2)c1.Cl,3.88
2,CCc1ccc2nc(NC(=O)Cn3cnc4ccccc4c3=O)sc2c1,9.75
3,O=C(Nc1cccc(NC(=O)c2ncn[nH]2)c1)c1cccc(Cl)c1,24
4,Cc1ccc(NC(=O)CN(C)C(C)C(=O)N2CC(C)CC(C)C2)cc1 (stereo not drawn),2.37
5,O=C(Nc1ccccc1C(=O)O)c1cc(S(=O)(=O)Nc2ccccc2)ccc1Cl,22.5
6,COc1ccc(NC(=O)CSCC(=O)Nc2nnc(C)s2)cc1,19.3
7,CCC(CC)=NNC(=O)c1ccccc1OCc1ccc(F)cc1,-15.1
8,CCO/C=C/C(O)(CNC(=O)COc1ccccc1F)C(F)(F)F (stereo not drawn),10.5
9,COc1cccc(C(=O)N=c2sc3cc(S(C)(=O)=O)ccc3n2C)c1,34.3
10,Cc1cccc(C)c1NC(=S)Nc1ccccc1C(=O)NCc1ccco1,-6.81
11,Cc1nn(-c2ccc(N3CCCCC3)nn2)c(C)c1CCC(=O)Nc1ccc(F)c(F)c1,-29.5
12,COc1cc2c(cc1OC)/C(=C/C#N)NC(C)(C)C2,3.41
13,O=C(c1cc2cc(Cl)ccc2[nH]1)N1CCN(c2ccc(F)cc2)CC1,24.6
14,CCCn1c(NC(=O)c2ccc(C)cc2)nc2ccccc21,-22.8
15,CCC(=O)c1cc2c(C)cc(=O)oc2c(C)c1OC(C)=O,-12.7
16,S=C1NC(c2ccccc2)N2C(=S)NC(c3ccccc3)N12 (stereo not drawn),3.59
17,COc1ccccc1CCNC1CCC(C)CC1 (stereo not drawn),-17.3
18,COc1ccccc1N1CCN(C(=O)COc2ccc(S(=O)(=O)NC(C)(C)C)cc2)CC1,4.58
19,CC(C)n1cnc2c(Nc3cccc(F)c3)nc(NCCO)nc21,-10.8
20,Cc1cc(OCc2ccccc2)ccc1/C(O)=C1/C(=O)C(=O)N(Cc2cccnc2)C1c1ccncc1 (stereo not drawn),7.21
21,CCCCNC(=O)C(NS(=O)(=O)c1cccc2nsnc12)c1ccccc1 (stereo not drawn),0.33
22,CCOC(=O)c1sc(=S)n(-c2ccc(Cl)cc2)c1SC,-10.3

row,Structure (SMILES),"hERG current change (%, negative = inhibition) at 10uM [%]"
1,CN(c1ccc(F)cc1)S(=O)(=O)c1ccc(Cl)c(C(=O)OCC(=O)NCc2ccco2)c1,-21.3
2,O=C(Nc1nc(-c2ccc3ccccc3c2)cs1)C1CCN(S(=O)(=O)c2cccs2)CC1,13.7
3,CCOc1ccccc1-n1c(SCC(=O)NC)nnc1-c1ccco1,-2.06
4,O=C(Oc1cccc(/C=N/Nc2nc(N3CCOCC3)nc(N3CCOCC3)n2)c1)c1ccco1,5.48
5,CNC(=O)c1cc2ccc(OC)cc2oc1=O,-3.97
6,Cc1cccc(C)c1NC(=S)N/N=C/c1c(Cl)cccc1Cl,7.04
7,O=C(O)/C=C\C(=O)Nc1cccc(C(=O)Nc2cccc(O)c2)c1,19.5
8,CCOc1ccc(OCC)c(NC(=O)CSc2nnc(Cn3cnc4ccccc43)n2C)c1,-47.9
9,CCOCCCNc1nc2c(-c3ccccc3)nnn2c2ccccc12,20
10,CC(C)NC(=O)CN1C(=O)C(C)(C)Oc2ccc(C(=O)NC3CCCCC3)cc21,12.9
11,CCOC(=O)C1(Cc2cccc(OC)c2)CCN(Cc2cccc(O)c2)CC1,-54.7
12,Cc1ccc(CN2C(=O)CCC2C(=O)NCc2ccc(F)cc2)cc1 (stereo not drawn),-26.4
13,C/C(O)=c1/cnc2nc3ccccc3n2c1=O,14.7
14,Cc1ccnc2nc(C(=O)NC3CCCc4ccccc43)nn12 (stereo not drawn),22.6
15,Cc1cccc(-n2ncc3c2CCCC3NC(=O)Cn2cccn2)c1C (stereo not drawn),5.82
16,O=C(COC(=O)/C=C/c1cccc(Br)c1)Nc1cccc(S(=O)(=O)NC2=NCCC2)c1,-2.76
17,Cc1noc(C)c1CSc1ncnc2sc(C)c(C)c12,7.44
18,Cc1cc(C)c(S(=O)(=O)Nc2nnc(CC(C)C)s2)c(C)c1,-2.24
19,O=C(Cn1cnc2c(cnn2-c2ccccc2Cl)c1=O)N1CCc2ccccc21,-0.441
20,O=c1c2ccccc2nnn1CSc1nc2cc(Cl)ccc2c(=O)n1Cc1ccco1,-4.29
21,COc1ccc([N+](=O)[O-])cc1NC(=O)C(C)OC(=O)C1CC(=O)N(Cc2ccco2)C1 (stereo not drawn),-57.4
